167 variants from the RNAGym collection of RNA variant scans (doi:10.7554/elife.90254) can be followed below.

The labels stand for the following.
B1: OR4K15 (parent)
chain: GUUAACGGUCAUAGGCCAUGGAAACUAGGAGCACCAUUUCGCUGCCAGUGAAGAAAUGAACAAAGAAAAUCUGGGCCAGGCAGGCAUCAAAAGAAAUAGUCUUGCGCUCAACCAGAAAGUCUGUAAUCAUUUUAAGGGUA

Read counts are not given, so values of variants with three or more changes are uncertain.

This data set covers variants of B1. Briefly: self-cleavage, relative activity (ratio to wild type); higher = more cleavage; in vitro, sequencing; the parent is a self-cleaving ribozyme.
For the variant G14A A63G U70G A91G A92G U103C A129C, the self-cleavage is 0.22. In the case of G15A C34A A95G, the self-cleavage came to 0.66. Regarding A13U A18C A22G A68G, the self-cleavage stood at 0.91. As for U12C A89U A111G A118C, the self-cleavage was found to be 0. On to A13G A66G A89G A114U A116U A125U, for which the self-cleavage worked out at 0.03.

With U12C A78C U97C A114G U132C, the self-cleavage was 0.01. As to C16U G31A U39A A114G, the self-cleavage was determined as 0.18. In the case of U12C U37C A62G it was 0.74; in that of A13U C16G A116G, 0.92; in that of G14A A47G A60G, 0.7.

As to G15A A27G U100C G104C A111G U122C, the self-cleavage is 0. On to U12C A69G U132C, for which the self-cleavage was 0.33. Take U12C A23U G28A C35U U49C U108C: the self-cleavage worked out at 0.05.

U12C A60G U70C U103C: the self-cleavage is 0.11. A13U A36G U131C: the self-cleavage came to 0.88. For the variant C16U A23G U43A U49C U57A, the self-cleavage is 0.17. In the case of U12C A52G U97A, the self-cleavage is 0.86.

In the case of U12C A23U A55G U124C A126G, the self-cleavage is 0.64. Regarding U12C A117G A134G, the self-cleavage was 2.01. Next, C17U A27G C32U U49C U132C: 0.72; A13U A23G A24G A30G G104A C121U U131C: 0.06.

With C17U A47U A59U U120A, the self-cleavage came to 0.75.

On to U12C A51G U102C, for which the self-cleavage was 1.05. In the case of U12G G14A G44U A78G A96U it was 0.46; in that of U12C A18G U103C U122C A140G, 0.94. For C17U A23C A30G A47G A82G A111G, the self-cleavage stood at 0.02. Take A13G A55U A59U C71U: the self-cleavage turned out to be 0.21. Turning to A13G A64G G84C A135G, the self-cleavage came out at 0.22. Next, A13G G15A A33G A56G A117G: 0.52. Turning to G14A A64U A68G, the self-cleavage turned out to be 1.26. Regarding U12C A63G A64C, the self-cleavage came out at 1.41. In the case of G15C A82U A96G, the self-cleavage turned out to be 0.33.

Consider U12C A66U A86G U133C, for which the self-cleavage came to 1.06. In the case of A13U A90G C101U A111U it was 0.04; in that of A13U C107U A117G U131C, 0.01.

Turning to C17A A18G U72A A86G A95G A117C, the self-cleavage was found to be 0.06. For the variant A13G A22G G29A A30U A111G U127C, the self-cleavage was 0.02. G14A A63G A129G: the self-cleavage stood at 0.89. For the variant U12C A22U G115A C121U, the self-cleavage is 0.04. A13G A82U A94U U132A: the self-cleavage was 0.28. Regarding A13G A95G U103G, the self-cleavage was 0.25. Next, G14U U49A A66G A110G A111G U132A: 0.01; U12G U38C U139C: 1.64.

A13G A55G A60G: the self-cleavage worked out at 0.89. For A13G A23G U70C G104A, the self-cleavage was found to be 0.02. In the case of U12C A30U A66G U87C C88A it was 0.94; in that of C17U A23G A30C U100C, 1.6.

Turning to G14A A54G A110G, the self-cleavage was found to be 0.12. Consider A13G A33G A78U A90G U108C U120C, for which the self-cleavage amounted to 0.01. Next, G14A A68G A111U: 0.12; C17A U37C G50A: 1.28. In the case of G14A U102C A116G, the self-cleavage turned out to be 0.61. In the case of U12C A30G A60G A62G it was 0.27.

For A13G A24G A27G A52G U132C, the self-cleavage is 2.05. For the variant G15A A52G A117G, the self-cleavage is 1.77.

For G15A U120A U122A, the self-cleavage came to 1.02. In the case of U12C A22G A30G A62G it was 1.32. Next, U12C A69G A82G U127A: 0.63; G15U A55G A90G: 0.86. Regarding G15C A59G U108C A134G U139G, the self-cleavage came to 0.01. In the case of A13G A91G U108C U130C, the self-cleavage stood at 0.02. In the case of A13G A18G A24G it was 0.56; in that of G14A U43C A60G, 1.58; in that of A13U U39C A63G C105U, 0.49. Take A13G A24G A51U A62C: the self-cleavage worked out at 0.96. Turning to U12C U49C A91U, the self-cleavage stood at 0.68. In the case of A13U A64G A86G U122C, the self-cleavage was 1.44.

G14U A63G A78G A125U: the self-cleavage was found to be 0.24. On to U12C A52G A56G C121U, for which the self-cleavage was 1.22.

As for A13U A22G U38C, the self-cleavage amounted to 0.52. Next, G14A U49C U108C: 0.01; A13G A52G A90G: 0.24. With A13U A23G A24G A78G A117G, the self-cleavage was found to be 0.33. On to U12C A30G U38A A69G A78G, for which the self-cleavage was 0.49. Regarding A13G U37C A51G, the self-cleavage is 1.09.

For the variant A13U G20A U37A A55G U97A A126G U131C, the self-cleavage amounted to 1.12. A13G A27G A52G A89U U100C: the self-cleavage was found to be 2. Turning to A13G A30G A111G, the self-cleavage was found to be 0.04.

Take C16U U43C A126G U132C: the self-cleavage is 1.45. Consider A13G G83A U103A U122C, for which the self-cleavage amounted to 0.

Take U12C U102G A116G U122C: the self-cleavage is 0.15. For A13C A90G A94G, the self-cleavage amounted to 1.42. As to C17U A86G A95G, the self-cleavage worked out at 1.27.

In the case of A13G U38C A56G A110U, the self-cleavage is 2.06.

Take U12C A94G A96G A116G A134U: the self-cleavage came to 0.89. As to A13G A126G U132C, the self-cleavage was 0.85. As for A13U U37C U38C, the self-cleavage is 1.21.

Take U12C A13U G44A A64G A86U A126G: the self-cleavage came to 0.26. In the case of A13G A56G A89U A91G A114G, the self-cleavage turned out to be 0.49. G15A A47U U49A A62G A86C U108C A116G A129U: the self-cleavage was found to be 0. Consider U12C A18G A51G A89U, for which the self-cleavage is 0.61.

For the variant U12C U43C A59G U87C, the self-cleavage was found to be 0.17. With A13G G75C A89U U132A, the self-cleavage was determined as 0.17. For C16U G83A U103C, the self-cleavage was 0.22. As for A13G A110U U130C, the self-cleavage stood at 0.97. As to A13U A22G U38C A51U U70C A90G A94G U132A, the self-cleavage is 0.48. In the case of A13G U43C C113U, the self-cleavage amounted to 0.4. Turning to U12C U19A A30G U43C U49C, the self-cleavage worked out at 1.16. A13G U72C A125G A135G: the self-cleavage stood at 0.13. For the variant U12C A23G A51U A94G, the self-cleavage is 0.89.

With A13G A82U A126G A140G, the self-cleavage was determined as 0.18. With G14A A18G A47C A55G, the self-cleavage was 1.23. On to G15A A66G A82G U108C, for which the self-cleavage stood at 0.

A13U U57A A68U: the self-cleavage is 2.25. In the case of C17U U39G U49C it was 1.12; in that of C17U A18G U132C, 1.18. Take U12C U38C A60G: the self-cleavage worked out at 0.79.

As to C17U A36G U39G A59G G74C G79A, the self-cleavage is 0.37. Take A13G A22U A96G C121U: the self-cleavage is 1.78. A13G A52U A111G U124C: the self-cleavage worked out at 0.04.

A13G A117G A140U: the self-cleavage is 1.38. Next, U12C A23G A63G A78G A94G A135U: 0.69; U12C U37C A118G: 0.75. With U12C G14A A126G, the self-cleavage was 0.26. In the case of A13G A54G A59G it was 1.42; in that of G14A U57A U122C, 0.74. Regarding G15A A67U G75A U102C A140U, the self-cleavage came to 0.04. Regarding A13G A90G U103C, the self-cleavage was 0.83. In the case of A13G A117G U122C it was 1.11; in that of G15U U38C U39C A67G U103C U132C, 1.05. For U12C A23G A78U, the self-cleavage amounted to 0.53. As to C16U A18G A55G A86G U100C, the self-cleavage turned out to be 1.81.

Take G14A A60G U70C: the self-cleavage was determined as 0.23. Take G15A U43C U124A: the self-cleavage was 0.9. In the case of G15U C45U A96U it was 0.83; in that of C16U A59U A96G A111G, 0.08; in that of U12G U37C A94U A111G, 0.18. On to U12C A94G U122A, for which the self-cleavage turned out to be 1.39.

With C17A A62G A86G, the self-cleavage was found to be 1.36. Take U12C U87C U130G A140G: the self-cleavage is 2.

With U12C A22G A30G U39C A67G, the self-cleavage amounted to 1.01.

Regarding A13G A62G U124C, the self-cleavage is 0.99. In the case of A13G U70C U102A, the self-cleavage worked out at 0.33.

With U12C A60G A96G U103C, the self-cleavage is 0.55. Take U12C U37C A47G: the self-cleavage worked out at 0.77. For G15A A60G U103C U132C, the self-cleavage was 0.69. On to C16U A91G A95G A140C, for which the self-cleavage worked out at 2.78. As to A13G A22U U70A U100C, the self-cleavage turned out to be 1.36. As to A18C A51G A62G A118G, the self-cleavage came out at 0.42. In the case of U12C U127C U131C, the self-cleavage turned out to be 0.82.

G14A A59C A62G: the self-cleavage came out at 0.49. A13U A110U A116G U139C: the self-cleavage is 0.53.

C16U C17A G136U: the self-cleavage came out at 1.4. A13U U43C A67G A82G: the self-cleavage was determined as 0.49.

Take A13G A69G A96U: the self-cleavage is 0.59. Consider A13G A54G A68U G137A, for which the self-cleavage turned out to be 1.2. Regarding A13G A24G A56G A126G, the self-cleavage turned out to be 0.5.

As to C16U C40U A52G A63G U108C U132C, the self-cleavage amounted to 0.04. As for G14A A23G A33U A116G U130C, the self-cleavage came to 0.68. As for A13G A91G A94C, the self-cleavage is 0.46. In the case of C16U U38C U72A A135G it was 0.58. Regarding A13G U39A A55G A59U A90U, the self-cleavage came out at 0.21. For C16U U38C U72A A91G G138A, the self-cleavage stood at 0.07. For A13G A22U U43C A98G, the self-cleavage came to 0.83.

With U12C A24U U108A, the self-cleavage is 0.08. In the case of A18C A23G U49C G106U A117G it was 0; in that of G14A A23G A54G A63G A66U A98G, 0.41; in that of A13G U39C U43C, 1.66. As for A13G A33G A82G A114U, the self-cleavage was 0.08. Next, G15A A55G A116G: 0.29; C16A U39C A78U: 0.08. For the variant A13G A18G A47G A78G A94U, the self-cleavage amounted to 0.48.

For the variant U12C C17U A24G U103A, the self-cleavage is 0.33. In the case of A13G U19A A54G A67G, the self-cleavage came to 0.32.

With G14A G53A A63U A116G, the self-cleavage was 0.32. In the case of A13G A24C A51G A86G, the self-cleavage turned out to be 1.08. U12C U120A U131C: the self-cleavage came out at 0.38.
